68 compounds from PubChem BioAssay AID1347073 (National Center for Advancing Translational Sciences (NCATS), 2019) can be followed below.

Screen size: about 45,000 compounds; about 200 (0.44%) were called active. Roughly 7% stayed inconclusive and do not appear here. The call rests on the fitted dose curve; in most records, active means well fitted activation curve with a large enough effect; inconclusive means small, poorly fitted or top-dose-only effect; inactive means no such curve, though single readings can be large or run the other way. The list shows a part of the results.

The nature of this experiment: qHTS of TDP-43 Inhibitors: NCGC Sytravon Library Screen. Further: 0% is about no effect; nearly all actives have a fitted effect of over 55% in size. To be noted: yeast TDP-43 toxicity rescue, BacTiter-Glo growth, 24 h; series mostly up to 46.1 µM; growth rescue (activation): at the top concentration. In a few lines:
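TDP-43-expressing yeast, pregrown in raffinose, seeded at OD600 0.02 in galactose medium with compound for 24 hr at 30 deg C. Growth read by BacTiter-Glo luminescence, so rescue of toxicity appears as activation.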
(In general: In qHTS, concentration-response curves come from the screen itself.)
In the case of `COc1cccc(OC)c1OCCOCCN1CCN(C)CC1`, the “growth rescue (activation)” value is inactive: -2.87%. The figure for `CN(C)c1cccc(CNC(=O)c2csc(COCCO)n2)c1` is inactive: 6.6%. As for `COc1ccccc1C(O)c1ncc(-c2ccc(Cl)cc2)[nH]1` (stereo not drawn), the “growth rescue (activation)” value was inactive: 3.8%. Under `CC1(C)CC(=O)C(N=Nc2c(Cl)cc(Cl)cc2Cl)=C(O)C1` stands inactive: -10.3%. In the case of `CC1=C(C#N)C(c2ccccc2O)C(C#N)=C(C)N1`, the “growth rescue (activation)” value was inactive: 3.17%. The figure for `Cc1occc1-c1nnc(SCC(=O)c2cc3ccccc3oc2=O)o1` is inactive: -22.3%; for `O=C(N/N=C/c1cccc(NC(=O)c2ccc(Cl)cc2)c1)c1cccc(O)c1` it is inactive: 5.64%. With `Cc1cc(Br)ccc1NC(=O)c1cc2c(s1)-c1ccccc1SC2`, the “growth rescue (activation)” value was inactive: 18.1%. Under `COc1ccc(CN(C)C(=O)c2cc(-c3ccc(C)cc3C)nc3ccccc23)c(OC)c1OC` stands inactive: 20.5%.

Regarding `CCC(C)C(=O)Nc1nnc(SCC(=O)Nc2ccc(F)cc2)s1` (stereo not drawn), the “growth rescue (activation)” value is inactive: -1.1%. As for `Cc1ccc(S(=O)(=O)N/N=C(\c2ccccc2)c2cccnc2)cc1`, the “growth rescue (activation)” value is inactive: 4.87%. Under `COc1ccc(NC(=S)N2CCN(C(=O)c3ccco3)CC2)cc1` stands inactive: 14.3%; under `CCOc1cc(S(=O)(=O)n2ccnc2)ccc1Cl`, inactive: -3.19%; under `O=C(NN1C(=O)C2C(c3ccccc3)C=CC(c3ccccc3)C2C1=O)c1ccccc1` (stereo not drawn), inactive: -0.0621%.

Turning to `CC(=O)N/N=C(\C)CC(=O)Nc1ccc2c(c1)OCCO2`, the “growth rescue (activation)” value was inactive: 2.13%. The figure for `Cn1cc(CN2CCC(n3nccc3NC(=O)C3CCCC3)CC2)cn1` is inactive: 19.9%; for `Cc1cccc(NC(=S)NC23CN4CN(CN(C4)C2)C3)c1` it is inactive: 5.14%; for `COc1cccc(CN2CCCC(C(=O)c3ccc4c(c3)OCO4)C2)c1OC` (stereo not drawn) it is inactive: 7.99%. The figure for `CCC(=O)Nc1ccc(NC(=O)c2ccc3c(c2)OCO3)cc1` is inactive: -11.3%. Under `Cc1ccc(-c2csc(C3=C(O)CN(NC(=O)c4ccc([N+](=O)[O-])cc4)C3=N)n2)cc1` stands inactive: -1.11%; under `Cn1c(Cc2ccccc2)nnc1SCc1nc2ccccc2c(=O)[nH]1`, inactive: -8.39%; under `NS(=O)(=O)c1ccc(NC(=O)/C(=C/c2ccncc2)NC(=O)c2ccccc2)cc1`, inactive: -4.83%. As to `COc1ccc(C2c3c(-c4ccccc4O)n[nH]c3C(=O)N2Cc2ccco2)cc1` (stereo not drawn), the “growth rescue (activation)” value was inactive: 0.764%. Under `CCC(=O)N1CCc2cc(Br)c(S(=O)(=O)CCC(=O)NCCOC)cc21` stands inactive: 3.94%. The figure for `Cc1ccc(C(=O)NC(NC(=O)c2ccc(C)cc2)c2cccc([N+](=O)[O-])c2)cc1` is inactive: 8.84%; for `CCCCn1c(-c2ccc(S(=O)(=O)N3CCOCC3)cc2)csc1=Nc1ccccc1` it is inactive: -5.83%; for `Cc1ccc(S(=O)(=O)NCCNC(=O)c2nonc2N)cc1` it is inactive: 23.4%. Under `CCOC(=O)NC(=O)/C(C#N)=C\NNc1ncc(C(F)(F)F)cc1Cl` stands inactive: -18.5%; under `O=C(/C=C/c1ccc2c(c1)OCO2)Nc1nc2ccccc2s1`, inactive: -8.71%. Regarding `Cc1nonc1N1CCN(Cc2cn[nH]c2-c2ccc3c(c2)OCO3)CC1`, the “growth rescue (activation)” value was inactive: 11.6%.

As for `CCOc1cc(N2CCOCC2)c(OCC)cc1NCC(=O)N1CCN(Cc2ccccc2)CC1`, the “growth rescue (activation)” value was inactive: 1.99%. Under `O=C(O)CC1S/C(=N\N=C/c2ccccc2O)N(c2ccc(O)cc2)C1=O` (stereo not drawn) stands inactive: -0.588%; under `COc1cc(Cn2c(-c3ccc(O)c(OC)c3)nc3ccccc32)ccc1O`, inactive: -15%. Under `CC1(C(=O)NCc2cccnc2)CCN1C(=O)Cc1cccs1` (stereo not drawn) stands inactive: -1.65%; under `O=C1NC2(CCCCC2)C(=O)N1Cc1cccc(C(F)(F)F)c1`, inactive: 1.92%. The figure for `CCOC(=O)C(=O)N1CCC(C(=O)OC)CC1` is inactive: 11.5%; for `Cc1ccc(NC(=O)CSc2nc(N)cc(=O)[nH]2)cc1S(=O)(=O)N1CCOCC1` it is inactive: 24.1%; for `CCc1ccc(OCC(=O)N/N=C(\C)c2ccc3c(c2)OCCO3)cc1` it is inactive: 9.15%. Turning to `CN(C)CC(O)COC(c1ccccc1)c1ccccc1` (stereo not drawn), the “growth rescue (activation)” value is inactive: -15.2%. Under `NS(=O)(=O)c1ccc(NC(=S)Nc2cc(Cl)c(Cl)cc2Cl)cc1` stands inactive: 8.43%; under `O=C(COC(=O)/C=C/c1ccc([N+](=O)[O-])cc1)NCc1ccccc1`, inactive: 3.61%; under `COc1ccc(C(=O)C2CCCN(Cc3ccc4c(c3)OCCO4)C2)cc1F` (stereo not drawn), inactive: 26.3%. The figure for `O=C(NO)c1ccccc1C(F)(F)F` is inactive: 3.2%.

Consider `O=C(CCCN1C(=O)/C(=C\c2cccs2)SC1=S)Nc1cccc(C(=O)O)c1`, for which the “growth rescue (activation)” value was inactive: -0.838%. For `CN(C(=O)c1ccc(=O)n(Cc2ccc(Cl)cc2)c1)c1ccccc1`, the “growth rescue (activation)” value was inactive: -1.99%. As to `Cc1c(C(=O)N/N=C/c2ccc(N3CCOCC3)cc2)nc2ccccn12`, the “growth rescue (activation)” value was inactive: 3.22%.

Regarding `CCc1cccc(C)c1Nc1c(-c2ccc(N(C)C)cc2)nc2ncccn12`, the “growth rescue (activation)” value is inactive: -18.8%. Turning to `Cn1cccc1/C=N/NC(N)=S`, the “growth rescue (activation)” value is inactive: 8.52%. Under `CCc1ccc(CNC(=O)Cc2ccc(NC(=O)C3=C(C)OCCS3)cc2)cc1` stands inactive: 3.03%; under `Cc1ccc(N(C(=O)c2snc(C(N)=O)c2N)C(CC(C)C)C(=O)NC2CCCC2)cc1` (stereo not drawn), inactive: -7.47%; under `O=C(CN1C(=O)C2CCCCC2C1=O)N1CCN(c2ncccn2)CC1` (stereo not drawn), inactive: -19.5%. Take `Cc1noc(NS(=O)(=O)c2ccc(N/C=C\C(=O)c3ccc(Br)cc3)cc2)c1C`: the “growth rescue (activation)” value is inactive: 22%. The figure for `O=C(NC1CCCCCC1)C(=S)NCCc1ccccc1` is inactive: 13.7%; for `CC1CCC(NC(=O)C2(C)Cc3ccccc3C(=O)N2Cc2ccccc2Cl)CC1` (stereo not drawn) it is inactive: 2.34%; for `NNC(=O)c1ccc(COc2cccc3cccnc23)cc1` it is inactive: -10.3%. Under `Cc1nnc(SCC(=O)N2CCN(S(=O)(=O)c3ccccc3)CC2)[nH]c1=O` stands inactive: 8.98%; under `Nc1nc(SC23CC4CC(CC(C4)C2)C3)ns1`, inactive: 5.52%. Under `CCCc1ccc(OCc2ccc(C(=O)NN)o2)c(OC)c1` stands inactive: 12.5%; under `O=C(CSCc1cccc(Cl)c1)Nc1ccccc1-c1ccccc1`, inactive: 16.7%.

Turning to `CCc1nc2c(OCc3ccc(OC)cc3)cccn2c1N(C)C(=O)C(C)C`, the “growth rescue (activation)” value was inactive: -1.38%. Consider `O=C(NCc1ccco1)C1CCCN1C(=O)Nc1ccccc1[N+](=O)[O-]` (stereo not drawn), for which the “growth rescue (activation)” value is inactive: 10.6%. Consider `CCOCCCNC(=O)c1ccc(N2CCOCC2)c(NS(=O)(=O)c2ccc(OC)cc2)c1`, for which the “growth rescue (activation)” value is inactive: -5.09%. Under `COc1cccc(N(C(=O)c2ccco2)C(C(=O)NC2CCCC2)c2cccnc2)c1` (stereo not drawn) stands inactive: 8.94%; under `Cc1nn(Cc2ccc(Cl)cc2)c(C)c1NC(=O)c1cc(C(C)C)on1`, inactive: 12.4%; under `CS(=O)(=O)NCCCc1ccccc1`, inactive: 24%.

For `CCN(C(=O)COC(=O)c1cc(-c2ccccc2)nc2c1c(C)nn2-c1ccccc1)C1CCS(=O)(=O)C1` (stereo not drawn), the “growth rescue (activation)” value was inactive: 10.4%. For `Cc1ccc(-c2csc3nc(SCC(=O)N(C)C)n(Cc4ccccc4)c(=O)c23)cc1`, the “growth rescue (activation)” value is inactive: 3.4%. The figure for `CN1CCN(C(=O)CC2C(=O)NCCN2Cc2ccc(-c3ccccc3)cc2)CC1` (stereo not drawn) is inactive: 7.61%.
